Measured values taken from a collection of fitness landscapes (doi:10.1126/science.1257360).
Some of the results follow.

B1: PhoQ; a variant is named by its letters at X, in order, P23837 (parent)
chain: MKKLLRLFFPLSLRVRFLLATAAVVLVLSLAYGMVALIGYSVSFDKTTFRLLRGESNLFYTLAKWENNKLHVELPENIDKQSPTMTLIYDENGQLLWAQRDVPWLMKMIQPDWLKSNGFHEIEADVNDTSLLLSGDHSIQQQLQEVREDDDDAEMTHSVAVNVYPATSRMPKLTIVVVDTIPVELKSSYMVWSWFIYVLSANLLLVIPLLWVAAWWSLRPIEALAKEVRELEEHNRELLNPATTRELTSLVRNLNRLLKSERERYDKYRTTLTDLTHSLKTPLXXLQXXLRSLRSEKMSVSDAEPVMLEQISRISQQIGYYLHRASMRGGTLLSRELHPVAPLLDNLTSALNKVYQRKGVNISLDISPEISFVGEQNDFVEVMGNVLDNACKYCLEFVEISARQTDEHLYIVVEDDGPGIPLSKREVIFDRGQRVDTLRPGQGVGLAVAREITEQYEGKIVAGESMLGGARMEVIFGRQHSAPKDE

Variants of: B1
Test: enrichment ratio after two sorts for PhoP signalling (ratio (wild type AVST 3.29)); higher = more functional
Conditions: with PhoP (E. coli)

ERLC and RNPY cannot be ordered by enrichment ratio: at most 0.25 for the first, at most 0.25 for the second.

VAQV and MIMY cannot be ordered by enrichment ratio: at most 0.25 for the first, at most 0.25 for the second.

GFTF and IEYI cannot be ordered by enrichment ratio: at most 0.25 for the first, at most 0.25 for the second.

DRPV and PVLS cannot be ordered by enrichment ratio: at most 0.25 for the first, at most 0.25 for the second.

AGTW and ASEF cannot be ordered by enrichment ratio: at most 0.25 for the first, at most 0.25 for the second.

TIWY and FNTW cannot be ordered by enrichment ratio: at most 0.25 for the first, at most 0.25 for the second.

VISS and KYAF cannot be ordered by enrichment ratio: at most 0.25 for the first, at most 0.25 for the second.

TWFD and LKMG cannot be ordered by enrichment ratio: at most 0.25 for the first, at most 0.25 for the second.

QCPL and IFKQ cannot be ordered by enrichment ratio: at most 0.25 for the first, at most 0.25 for the second.

QRMS and KPWN cannot be ordered by enrichment ratio: at most 0.25 for the first, at most 0.25 for the second.

First: NDRV
Second: MGAE
The enrichment ratio of the first is lower: at most 0.25 for the first, 11 for the second.

Going from RHNI to ACPV, the enrichment ratio rises from at most 0.25 to 6.8.

IRDL and EFWP cannot be ordered by enrichment ratio: at most 0.25 for the first, at most 0.25 for the second.

SAAE and YGIA cannot be ordered by enrichment ratio: at most 0.25 for the first, at most 0.25 for the second.

WMQR and CMVY cannot be ordered by enrichment ratio: at most 0.25 for the first, at most 0.25 for the second.

FACF and GMSH cannot be ordered by enrichment ratio: at most 0.25 for the first, at most 0.25 for the second.

QDRV and NQPP cannot be ordered by enrichment ratio: at most 0.25 for the first, at most 0.25 for the second.

Compared with PMSR, NTTY is higher in enrichment ratio: at most 0.25 for the first, 1.06 for the second.

IPKV and DHVA cannot be ordered by enrichment ratio: at most 0.25 for the first, at most 0.25 for the second.

EGLH and FVWQ cannot be ordered by enrichment ratio: at most 0.25 for the first, at most 0.25 for the second.

YRRA and VCYD cannot be ordered by enrichment ratio: at most 0.25 for the first, at most 0.25 for the second.

DNCM and KGEN cannot be ordered by enrichment ratio: at most 0.25 for the first, at most 0.25 for the second.

DANE and IMPW cannot be ordered by enrichment ratio: at most 0.25 for the first, at most 0.25 for the second.

HKNM and MQHE cannot be ordered by enrichment ratio: at most 0.25 for the first, at most 0.25 for the second.

LKNL and HTPW cannot be ordered by enrichment ratio: at most 0.25 for the first, at most 0.25 for the second.

WNNP and KCSN cannot be ordered by enrichment ratio: at most 0.25 for the first, at most 0.25 for the second.

DTWK and SKEE cannot be ordered by enrichment ratio: at most 0.25 for the first, at most 0.25 for the second.

WSPI and KGHC cannot be ordered by enrichment ratio: at most 0.25 for the first, at most 0.25 for the second.

QLHW and AGFG cannot be ordered by enrichment ratio: at most 0.25 for the first, at most 0.25 for the second.

KKCH and VKQQ cannot be ordered by enrichment ratio: at most 0.25 for the first, at most 0.25 for the second.

GWSG and DCLR cannot be ordered by enrichment ratio: at most 0.25 for the first, at most 0.25 for the second.

First: WTVS
Second: FSVL
The enrichment ratio of the first is lower: at most 0.25 for the first, 11.7 for the second.

INVV and VMSV cannot be ordered by enrichment ratio: at most 0.25 for the first, at most 0.25 for the second.

EDNP and DWCP cannot be ordered by enrichment ratio: at most 0.25 for the first, at most 0.25 for the second.

DVCY and YCIN cannot be ordered by enrichment ratio: at most 0.25 for the first, at most 0.25 for the second.

MHSP and FAFN cannot be ordered by enrichment ratio: at most 0.25 for the first, at most 0.25 for the second.

HVRS and ASQY cannot be ordered by enrichment ratio: at most 0.25 for the first, at most 0.25 for the second.

QYTH and RPKN cannot be ordered by enrichment ratio: at most 0.25 for the first, at most 0.25 for the second.

GWFD and SKKW cannot be ordered by enrichment ratio: at most 0.25 for the first, at most 0.25 for the second.

PSNE and PLGE cannot be ordered by enrichment ratio: at most 0.25 for the first, at most 0.25 for the second.

ADTA and LACM cannot be ordered by enrichment ratio: at most 0.25 for the first, at most 0.25 for the second.

First: SAFQ
Second: HDCS
The enrichment ratio of the first is higher: 2.84 for the first, at most 0.25 for the second.

HQIA and RDYK cannot be ordered by enrichment ratio: at most 0.25 for the first, at most 0.25 for the second.

FHYS and VQSL cannot be ordered by enrichment ratio: at most 0.25 for the first, at most 0.25 for the second.

KGCA and AYGF cannot be ordered by enrichment ratio: at most 0.25 for the first, at most 0.25 for the second.

Compared with SGTV, QKPG is lower in enrichment ratio: 9.21 for the first, at most 0.25 for the second.

ARDP and FFVC cannot be ordered by enrichment ratio: at most 0.25 for the first, at most 0.25 for the second.

Going from EMAV to MTLF, the enrichment ratio rises from at most 0.25 to 9.13.

NYSS and YSTK cannot be ordered by enrichment ratio: at most 0.25 for the first, at most 0.25 for the second.

PCGS and IMPP cannot be ordered by enrichment ratio: at most 0.25 for the first, at most 0.25 for the second.

KLTG and FEYH cannot be ordered by enrichment ratio: at most 0.25 for the first, at most 0.25 for the second.

ETMC and LSWW cannot be ordered by enrichment ratio: at most 0.25 for the first, at most 0.25 for the second.

DLQF and RSLH cannot be ordered by enrichment ratio: at most 0.25 for the first, at most 0.25 for the second.

TVYC and PTST cannot be ordered by enrichment ratio: at most 0.25 for the first, at most 0.25 for the second.

PLHH and MQLP cannot be ordered by enrichment ratio: at most 0.25 for the first, at most 0.25 for the second.

KNWC and RVHS cannot be ordered by enrichment ratio: at most 0.25 for the first, at most 0.25 for the second.

First: ASME
Second: AGKN
The enrichment ratio of the first is higher: 10.8 for the first, at most 0.25 for the second.

Compared with SGVI, YLKK is lower in enrichment ratio: 9.24 for the first, at most 0.25 for the second.

LRMM and FARR cannot be ordered by enrichment ratio: at most 0.25 for the first, at most 0.25 for the second.

Going from GTAG to TEAG, the enrichment ratio rises from at most 0.25 to 19.7.

PCNY and KDSV cannot be ordered by enrichment ratio: at most 0.25 for the first, at most 0.25 for the second.

Compared with NFSV, RPIP is lower in enrichment ratio: 0.634 for the first, at most 0.25 for the second.

ARWC and FMPG cannot be ordered by enrichment ratio: at most 0.25 for the first, at most 0.25 for the second.

GDYH and VQPH cannot be ordered by enrichment ratio: at most 0.25 for the first, at most 0.25 for the second.

VGQN and HMRG cannot be ordered by enrichment ratio: at most 0.25 for the first, at most 0.25 for the second.

HRHQ and REDP cannot be ordered by enrichment ratio: at most 0.25 for the first, at most 0.25 for the second.

GPVQ and TDIW cannot be ordered by enrichment ratio: at most 0.25 for the first, at most 0.25 for the second.

GFRW and WSSS cannot be ordered by enrichment ratio: at most 0.25 for the first, at most 0.25 for the second.

AEPD and QRHW cannot be ordered by enrichment ratio: at most 0.25 for the first, at most 0.25 for the second.

MTMR and YWMV cannot be ordered by enrichment ratio: at most 0.25 for the first, at most 0.25 for the second.

AFCR and GMIF cannot be ordered by enrichment ratio: at most 0.25 for the first, at most 0.25 for the second.

EGIN and RGGN cannot be ordered by enrichment ratio: at most 0.25 for the first, at most 0.25 for the second.

QRER and LTIW cannot be ordered by enrichment ratio: at most 0.25 for the first, at most 0.25 for the second.

EHHC and VAGK cannot be ordered by enrichment ratio: at most 0.25 for the first, at most 0.25 for the second.

SWSW and KYSQ cannot be ordered by enrichment ratio: at most 0.25 for the first, at most 0.25 for the second.

QCAK and WDNL cannot be ordered by enrichment ratio: at most 0.25 for the first, at most 0.25 for the second.

STRV and KYWR cannot be ordered by enrichment ratio: at most 0.25 for the first, at most 0.25 for the second.

GHSP and TWRH cannot be ordered by enrichment ratio: at most 0.25 for the first, at most 0.25 for the second.

PICH and HETA cannot be ordered by enrichment ratio: at most 0.25 for the first, at most 0.25 for the second.

YCKP and PVRG cannot be ordered by enrichment ratio: at most 0.25 for the first, at most 0.25 for the second.

Compared with NHHH, GSTA is higher in enrichment ratio: at most 0.25 for the first, 0.871 for the second.

NWFW and YHEY cannot be ordered by enrichment ratio: at most 0.25 for the first, at most 0.25 for the second.

QENL and VHNS cannot be ordered by enrichment ratio: at most 0.25 for the first, at most 0.25 for the second.

RDWH and DYNN cannot be ordered by enrichment ratio: at most 0.25 for the first, at most 0.25 for the second.

WIDF and VFEM cannot be ordered by enrichment ratio: at most 0.25 for the first, at most 0.25 for the second.

HKYC and NDNM cannot be ordered by enrichment ratio: at most 0.25 for the first, at most 0.25 for the second.

VNQI and MQSS cannot be ordered by enrichment ratio: at most 0.25 for the first, at most 0.25 for the second.

SWIC and AHIL cannot be ordered by enrichment ratio: at most 0.25 for the first, at most 0.25 for the second.

IAGV and HKIN cannot be ordered by enrichment ratio: at most 0.25 for the first, at most 0.25 for the second.

VLQD and HWDF cannot be ordered by enrichment ratio: at most 0.25 for the first, at most 0.25 for the second.

VMFT and SRST cannot be ordered by enrichment ratio: at most 0.25 for the first, at most 0.25 for the second.

RACE and YIWW cannot be ordered by enrichment ratio: at most 0.25 for the first, at most 0.25 for the second.

AFAQ and GYVF cannot be ordered by enrichment ratio: at most 0.25 for the first, at most 0.25 for the second.

SFWI and PAIG cannot be ordered by enrichment ratio: at most 0.25 for the first, at most 0.25 for the second.

RQHQ and MHVR cannot be ordered by enrichment ratio: at most 0.25 for the first, at most 0.25 for the second.

Going from KDQM to FTLS, the enrichment ratio rises from at most 0.25 to 6.25.

VYIR and PGGQ cannot be ordered by enrichment ratio: at most 0.25 for the first, at most 0.25 for the second.

QMAS was tested, and the enrichment ratio was at most 0.25.
